# Laboratory results as given in publication PMC4336329 (PLoS ONE, 2015).
# The campaign covered roughly 310,000 compounds. About 14,000 (4.5%) showed an effect of 50% or more. Effects have a minus sign here. The list shows a part of the results.
# Target: human ether-à-go-go-related gene (hERG) potassium channel (human, UniProt Q12809)
# Experiment: primary screen, population patch clamp on CHO cells stably expressing hERG
# 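Also: peak tail current of the secondary pulse compared with the same well before compound.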
# Chain of human ether-à-go-go-related gene (hERG) potassium channel (Q12809 whole entry, looked up): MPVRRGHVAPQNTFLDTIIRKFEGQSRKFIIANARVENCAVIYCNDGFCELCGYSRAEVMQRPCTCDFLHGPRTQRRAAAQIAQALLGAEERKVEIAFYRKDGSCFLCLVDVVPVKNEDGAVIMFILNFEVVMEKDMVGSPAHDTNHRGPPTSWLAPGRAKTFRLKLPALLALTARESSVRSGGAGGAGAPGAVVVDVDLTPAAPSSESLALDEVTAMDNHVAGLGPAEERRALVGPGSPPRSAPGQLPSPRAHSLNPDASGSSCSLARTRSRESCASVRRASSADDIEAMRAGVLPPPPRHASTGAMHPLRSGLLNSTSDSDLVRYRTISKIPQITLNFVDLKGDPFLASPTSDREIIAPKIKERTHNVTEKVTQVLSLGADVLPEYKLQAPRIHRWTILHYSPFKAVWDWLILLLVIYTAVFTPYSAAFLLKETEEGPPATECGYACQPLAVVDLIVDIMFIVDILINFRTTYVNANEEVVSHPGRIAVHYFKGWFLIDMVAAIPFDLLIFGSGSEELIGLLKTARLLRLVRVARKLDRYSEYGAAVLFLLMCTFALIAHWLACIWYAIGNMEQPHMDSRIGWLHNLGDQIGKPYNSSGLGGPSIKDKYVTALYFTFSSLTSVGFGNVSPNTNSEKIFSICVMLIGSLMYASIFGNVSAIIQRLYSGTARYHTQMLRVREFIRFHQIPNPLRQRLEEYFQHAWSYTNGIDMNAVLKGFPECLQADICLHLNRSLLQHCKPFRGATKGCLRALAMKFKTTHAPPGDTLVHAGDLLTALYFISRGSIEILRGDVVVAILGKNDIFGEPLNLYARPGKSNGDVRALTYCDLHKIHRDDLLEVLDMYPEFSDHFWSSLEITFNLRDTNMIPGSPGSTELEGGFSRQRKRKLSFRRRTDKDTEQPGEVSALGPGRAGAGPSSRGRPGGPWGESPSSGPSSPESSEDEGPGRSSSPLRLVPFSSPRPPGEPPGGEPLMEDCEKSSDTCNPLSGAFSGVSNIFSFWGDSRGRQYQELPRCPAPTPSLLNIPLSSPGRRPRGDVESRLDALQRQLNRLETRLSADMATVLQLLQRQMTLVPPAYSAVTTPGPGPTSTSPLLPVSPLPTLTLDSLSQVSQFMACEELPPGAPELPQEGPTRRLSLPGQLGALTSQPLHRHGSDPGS
row,Structure (SMILES),"hERG current change (%, negative = inhibition) at 10uM"
1,Cc1cc(C(C)(C)C)cc(C)c1COC(=O)c1cccnc1,-14.9%
2,Cc1ccc(-c2csc3nc4c5ccccc5c(NCCCN5CCOCC5)nn4c(=O)c23)cc1,2.7%
3,CC(c1ccccc1)n1c(-c2cccs2)nc2c(c(=O)c3ccccc3n2C)c1=O (stereo not shown),-6.38%
4,Cc1ccc(S(=O)(=O)Nc2ccccc2C(=O)N2CCOCC2)cc1,16.2%
5,COc1ccc(NC(=O)CN(Cc2ccccc2)S(C)(=O)=O)c(OC)c1,8.88%
6,COc1ccc(-n2c(=O)c(CCC(=O)N3CCN(c4ccccc4O)CC3)nc3ccccc32)cc1,-12.7%
7,Cc1cc(=O)oc(C)c1C(=O)O,21.5%
8,CSCc1c(C(=O)Nc2ccc(N3CCOCC3)cc2)oc2ccccc12,-3.24%
9,COc1cccc(Nc2nc(N)c([N+](=O)[O-])c(N3CCOCC3)n2)c1,-14.2%
10,CCOc1ccc(CNC(=S)NCc2ccc(OCC)cc2)cc1,15.2%
11,Clc1ccc(-c2csc(-c3ccno3)n2)cc1,9.66%
12,Cc1nn(-c2ccccc2)c(Cl)c1/C=N/O,5.77%
13,COc1cc(CNn2c(C)n[nH]c2=S)cc(Cl)c1OCC(=O)NC(C)(C)C,16.5%
14,O=C(N/N=C/c1ccc([N+](=O)[O-])s1)c1cccc(Br)c1,6.39%
15,Cc1sc(NC(=O)c2ccccc2)c(C(c2ccccn2)N2CCN(CCO)CC2)c1C (stereo not shown),-53.7%
16,Cc1ccccc1NC(=S)NC(NC(=O)CF)C(Cl)(Cl)Cl (stereo not shown),2.77%
17,O=C(CN1C(=O)C2CCCCC2C1=O)OCC(=O)c1ccc(Cl)s1 (stereo not shown),-8.33%
18,CCN(CC(=O)Nc1c(F)cccc1F)C(=O)c1ccc(S(=O)(=O)N2CCC(C)CC2)cc1,-21%
19,CC1(C)CC(OC(=O)c2ccco2)CC(C)(C)N1O.Cl,5.26%
20,CCOC(=O)C(=O)NNc1ccccc1OC,13.1%
21,O=C(O)C[C@H]1c2cc(F)ccc2S(=O)(=O)N1C1CCCC1,25.7%
22,O=C(CN1CCC2(CC1)OCCO2)c1ccc2cc[nH]c2c1,-15.2%
23,COc1ccc(C(=O)NNC(=O)C(=O)Nc2ccc(C)cc2)cc1,-3.87%
24,O=C(/C=C/c1ccc(S(=O)(=O)N2CCOCC2)cc1)N(CCO)Cc1ccccc1,8.71%
25,O=C(Nc1cccc(-c2cn3cccnc3n2)c1)c1ccc2c(c1)OCO2,-18.3%
